# From PubChem BioAssay AID651820 (National Center for Advancing Translational Sciences (NCATS), 2012)
# Where “and” joins values, the source holds several entries; their conditions need not be identical. Equal values may be shown once. Hit rate of the full screen: of about 340,000 compounds, about 12,000 (3.5%) were called active. The inconclusive results got no clear call from the source; some entries with a clear call stand among them for comparison. Calls come from the whole dose curve; as a rule, active = well fitted inhibition curve with a large enough effect; inconclusive = small, poorly fitted or top-dose-only effect, or another doubt; inactive = no such curve, though single readings can be large or run the other way. Where the call is inconclusive, the potency comes from a doubtful curve fit.
# Assay: qHTS Assay for Inhibitors of Hepatitis C Virus (HCV)
# Settings: Huh7.5.1 HCVcc-Cre (HCVcc is cell-culture hepatitis C virus) infection, luciferase reporter, 44 h; activity change, negative = inhibition: at 41.8 µM (top of the series) unless noted
# Method in brief: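 Whole-lifecycle infectious HCVcc-Cre system; cells 1,000/well, compound then virus (~0.5 moi) added 4 h after plating, 44 h culture. Luciferase read 15 sec following 15 min substrate incubation, room temp.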
# % is set by controls: 0 for no effect and ±100 for the full control effect; potency is the fitted concentration of half-maximal effect; tags give direction and shape of the fitted curve.
Compound,Potency,"activity change, negative = inhibition"
COc1ccc2sc(-c3ccc(S(C)(=O)=O)cc3)c(-c3ccc(SC)cc3)c2c1,"inconclusive: 22.4 µM [inhibitor, single point]",
CCOC(=O)C1(CC2CCCCO2)CCN(S(=O)(=O)c2c(C)nn(C)c2C)CC1 (configuration not stated),,inactive: -13.1%
O=C(Cn1cc(C(=O)c2cccs2)c2ccccc21)NCc1ccc2c(c1)OCO2,"inconclusive: 12.6 µM [inhibitor, partial curve]",
O=C(NC1CCCc2ccccc21)c1ccc(CNc2c(N3CCOCC3)c(=O)c2=O)cc1 (configuration not stated),"inconclusive: 22.4 µM [inhibitor, single point] and inconclusive: 1.41 µM [inhibitor, full curve]",
O=C(NCCCO)NC12CC3CC(CC(C3)C1)C2,,inactive: -0.491%
CSc1nc2nc3c(cc2c(=O)n1-c1ccccc1C)CCCC3,"inconclusive: 31.6 µM [inhibitor, single point]",
COc1ccc(-n2cnc3cc(NCc4cccs4)ccc32)cc1,"inconclusive: 12.6 µM [inhibitor, single point]",
COc1ccc(-c2nc3ccccc3o2)cc1OC,"inconclusive: 31.6 µM [inhibitor, single point]",
CCOc1ccc(CNC(=O)c2ccc(Sc3ccc(C)cc3)c(NC(C)=O)c2)cc1,"inconclusive: 25.1 µM [inhibitor, partial curve]",
S=C(Nc1ccc2nsnc2c1)N1CCCC1,,inactive: -5.59%
CCN(CC(=O)N1CCN(C)CC1)S(=O)(=O)c1ccc(Cl)cc1,,inactive: -5.43%
C=CCN=c1scc(C)n1/N=C/c1ccc(O)c(O)c1,active: 11.2 µM,
O=[N+]([O-])c1ccc(COc2cccc(CNc3ccc(F)cc3)c2)cc1,,inactive: 11.1%
CCN(CC)c1ccc(/C=N/N2CCN(Cc3ccc(C)cc3)CC2)c(O)c1,"inconclusive: 31.6 µM [inhibitor, single point]",
Cc1ccc(C)c(NS(=O)(=O)c2cc3c4c(c2)CC(=O)N4CCC3)c1,"inconclusive: 31.6 µM [inhibitor, single point]",
CCNc1nc(Oc2ccc(Cl)cc2Cl)cc(C(F)(F)F)n1,"inconclusive: 8.91 µM [inhibitor, partial curve, poor fit]",
O=C(c1ccc(Cl)cc1)C1CCCN(Cc2ccc3ncccc3c2)C1 (configuration not stated),"inconclusive: 5.62 µM [inhibitor, full curve]",
Cc1ccc(SCCNC(=O)c2ccc(C)c(S(=O)(=O)Nc3ccccc3C)c2)cc1,"inconclusive: 31.6 µM [inhibitor, single point]",
Cn1c2ccccc2c(=O)c2ccc(C#CC3(O)CCCCC3)cc21,active: 10 µM,
CC(C)(C)c1ccc(C(=O)NCC(=O)N/N=C/c2ccccc2OCC(=O)O)cc1,"inconclusive: 5.62 µM [inhibitor, single point]",
Cc1ccc(C(=O)Nc2ccc3c(c2)OCO3)cc1S(=O)(=O)N1CCCC1,"inconclusive: 11.2 µM [inhibitor, partial curve]",
COc1ccc(S(=O)(=O)NCC(c2ccc(C)cc2)N2CCN(C)CC2)cc1OC (configuration not stated),"inconclusive: 5.01 µM [inhibitor, single point]",
O=C(Cc1ccc(-n2cccc2)cc1)NCc1ccccc1Cl,"inconclusive: 0.562 µM [inhibitor, full curve, poor fit]",

Compound,Potency,"activity change, negative = inhibition"
COC(=O)c1ccccc1NC(=O)CSc1nnc(-c2cccc(NC(C)=O)c2)n1C,"inconclusive: 0.501 µM [inhibitor, partial curve, poor fit]",
Cc1cc(C)c2ccc(C)[n+]([O-])c2c1O,"inconclusive: 31.6 µM [inhibitor, single point]",
O=C(Nc1ccccc1F)C1CCCN(S(=O)(=O)c2ccccc2)C1 (configuration not stated),"inconclusive: 31.6 µM [inhibitor, single point]",
C[C@H](CO)N1C[C@H](C)[C@@H](CN(C)C(=O)Nc2ccc(C(F)(F)F)cc2)Oc2ccc(NS(=O)(=O)c3ccc(F)cc3)cc2C1=O,,inactive: -21.7%
COc1cc2c(cc1O)[C@@H]1Cc3ccc(OC)c(O)c3CN1CC2,active: 2.51 µM,
CCN(NC(=O)C(O)(c1ccccc1)c1ccccc1)C(=O)c1ccccc1,,inactive: -4.11%
Cc1ccc(-c2cc(C(F)F)n3ncc(C(=O)Nc4ccc(S(=O)(=O)Nc5ccccc5C)cc4)c3n2)cc1,"inconclusive: 1.26 µM [inhibitor, partial curve]",
CCOC(=O)c1nn(-c2cccc(OC)c2)c2nc(CC)c(C#N)c(=O)n12,,inactive: -18.7%
CCC(C)(C)NC(=O)C(c1cccn1C)N(C(=O)Cn1nnc2ccccc21)c1ccc(OC)cc1 (configuration not stated),,inactive: -4.07%
COc1ccc(CCn2c(C)cc3c(c2=O)C(c2ccc4c(c2)OCO4)C(C#N)=C(N)O3)cc1OC (configuration not stated),"inconclusive: 31.6 µM [inhibitor, partial curve]",
N#Cc1ccc(C23CC4(C2)[C@H](CN(Cc2cccnc2)[C@@H]4c2ccccc2)C3c2ccccc2)cc1 (some centres not stated),"inconclusive: 20 µM [inhibitor, single point]",
CCOc1cc(CN2CCCC(N3CCN(c4ccc(F)cc4)CC3)C2)ccc1OC (configuration not stated),,inactive: 0.218%
CN(CC(=O)Nc1ccccc1Cl)CC(=O)N(C)c1c(N)n(Cc2ccccc2)c(=O)[nH]c1=O,,inactive: 15.8%
CC(C)n1cc(/C=C2/NC(=O)NC2=O)c2ccccc21,"inconclusive: 2 µM [inhibitor, full curve]",
CCOC(=O)c1c(C#N)c(SCC(=O)Nc2ccc(OC)cc2)nc2c1CN(CC)CC2,"inconclusive: 31.6 µM [inhibitor, single point]",
COC(=O)C1=NN(C(=O)c2ccc(C)cc2)C(O)(c2ccc(Cl)cc2)C1 (configuration not stated),,inactive: 4.24%
COc1ccccc1-c1cc(-c2ccccc2)nc(SC(C(N)=O)c2ccccc2)c1C#N (configuration not stated),"inconclusive: 12.6 µM [inhibitor, partial curve, poor fit]",
Cc1ccccc1NC(=O)Cc1nc(COC(=O)c2ccc(S(C)(=O)=O)c([N+](=O)[O-])c2)cs1,active: 10 µM,
COC(=O)c1ccc(C)c(NC(=O)c2nn(C)c(=O)c3ccccc23)c1,,inactive: -4.35%
COc1ccccc1NC(=O)N(Cc1ccc2c(c1)OCO2)Cc1nc2ccccc2c(=O)[nH]1,inactive,
COc1ccccc1NC(=O)C1CC(=O)N(c2ccc(F)cc2)C1 (configuration not stated),"inconclusive: 2.51 µM [inhibitor, partial curve]",
CCOc1ccc(CCNC(=O)c2nn(C)c3c2CS(=O)(=O)c2ccccc2-3)cc1OCC,active: 6.31 µM,
CC(C)n1c(-c2ccc(C(C)(C)C)cc2)n[nH]c1=S,"inconclusive: 12.6 µM [inhibitor, single point]",

Compound,Potency,"activity change, negative = inhibition"
CN(CCC(=O)Nc1cc(S(=O)(=O)N(C)C)ccc1Cl)CC(=O)Nc1ccc(F)cc1,"inconclusive: 5.62 µM [inhibitor, single point]",
CN(CC(=O)Nc1ccc(OC(F)F)cc1)S(=O)(=O)/C=C/c1ccccc1,"inconclusive: 10 µM [inhibitor, partial curve]",
O=C(Nc1ccc(N2CCN(C(=O)c3ccccc3)CC2)c(Cl)c1)c1ncn[nH]1,,inactive: -21.7%
C=CCN1CCN(C(c2cccc(OC)c2OC)c2nnnn2CCC(C)C)CC1 (configuration not stated),,inactive: -4.11%
O=C(Nc1ccc(Oc2ccccc2)cc1)C1CCN(c2c3c(nc4ncnn24)CCC3)CC1,active: 25.1 µM,
COc1ccc(NC(=O)CN2C(=O)COc3ccc(S(=O)(=O)N4CCCCC4)cc32)c(OC)c1,"inconclusive: 10 µM [inhibitor, single point]",
Cc1ccc(N2C(=O)NC(=O)/C(=C/c3cnn(-c4ccc(C)cc4)c3)C2=O)cc1,,inactive: -3.69%
Cc1cccc(-c2nn(-c3ccccc3)cc2C(=O)N2CCN(C3CCS(=O)(=O)C3)CC2)c1 (configuration not stated),,inactive: 3.52%
COC(=O)C1CCN(C(=O)COC(=O)c2ccc3[nH]c4c(c3c2)CCCC4)CC1,"inconclusive: 31.6 µM [inhibitor, single point]",
NC(=O)c1ccc(NC(=O)COC(=O)c2cc3ccccc3cc2O)cc1,"inconclusive: 12.6 µM [inhibitor, single point]",
CCN(C(=O)c1ccc2c(Cl)c3c(nc2c1)CCC3)c1ccc(C)c(C)c1,"inconclusive: 14.1 µM [inhibitor, single point]",
O=C(CSc1nnnn1-c1ccccc1)N1CCNC1=O,,inactive: 13.2%
COc1ccc(CNC(=O)c2c(O)c3cc(OC)c(OC)cc3[nH]c2=O)cc1OC,,inactive: -26.4%
C[C@H](NC(=O)c1nc[nH]c1C(=O)N[C@@H](Cc1ccccc1)C(=O)OC(C)(C)C)c1ccccc1,"inconclusive: 2.82 µM [inhibitor, single point]",
CCn1cc(C2=NC(C(C)C)CO2)c2ccccc21 (configuration not stated),"inconclusive: 35.5 µM [inhibitor, partial curve, poor fit]",
CC(=O)/C(=N\Nc1ccccc1Cl)Sc1cccc2cccnc12,"inconclusive: 14.1 µM [inhibitor, partial curve]",
Cc1ccccc1C1c2[nH]c3ccccc3c2C[C@H]2C(=O)N(c3ccccc3C(=O)NCCCN3CCOCC3)C(=O)N12 (some centres not stated),active: 1.12 µM,
O=C(CSc1nccn1-c1ccccc1)NCc1ccc2c(c1)OCO2,"inconclusive: 0.316 µM [inhibitor, full curve, poor fit]",
COc1ccc(/C=N/NC(=O)Cn2c(Cc3ccc(OC)c(OC)c3)nc3ccccc32)cc1,"inconclusive: 10 µM [inhibitor, partial curve]",
CC(C)c1ccccc1OCC(=O)Nc1cc(S(=O)(=O)N2CCOCC2)ccc1N1CCCC1,"inconclusive: 22.4 µM [inhibitor, single point]",
CC(=O)c1c(C)[nH]c(C(=O)OCc2ccccc2)c1C,"inconclusive: 3.55 µM [inhibitor, full curve]",
